Experimental data reported in PubChem BioAssay AID686978 (National Center for Advancing Translational Sciences (NCATS), 2013).
Where “and” joins values, the source holds several entries; their conditions need not be identical. Identical values can stand only once. Out of some 420,000 compounds screened, about 64,000 (15%) were called active. This list was built around the results that the source calls inconclusive (neither active nor inactive); the mix of calls is not that of the screen. Calls come from the whole dose curve; as a rule, active = well fitted inhibition curve with a large enough effect; inconclusive = small, poorly fitted or top-dose-only effect; inactive = flat fitted curve, though single readings scatter. Where the call is inconclusive, the potency comes from a doubtful curve fit.

assay: qHTS for Inhibitors of human tyrosyl-DNA phosphodiesterase 1 (TDP1): qHTS in cells in absence of CPT; details: DT40 Tdp1-/- hTDP1 cells, no CPT, ATP luminescence, 48 h; activity change, negative = growth inhibition: at 46.2 µM (top of the series) unless noted; note: nearly all actives have a fitted effect of over 55% in size
Method in brief: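 Growth of hTDP1-complemented DT40 Tdp1-knockout cells is measured by ATP luminescence after at least 48 hr compound exposure at 37 °C, with DMSO substituting for the 20 nM CPT used in the parallel screen.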
% is set by controls: 0 for no effect and ±100 for the full control effect; potency is the fitted concentration of half-maximal effect; tags give direction and shape of the fitted curve.

SMILES | activity change, negative = growth inhibition | Potency
CCOC(=O)C(O)(c1ccc(N=c2ccccn2C)cc1)C(F)(F)F (stereo not given) | inactive: 2.91% | 
CC(=O)c1ccc(N2CCN(S(=O)(=O)c3cc(-c4onc(C)c4C)ccc3C)CC2)cc1 |  | active: 9.2 µM
COC(=O)C1=C(c2ccc(OC)c(OC)c2)C[C@@H]2CC[C@H]1N2C(=O)N1CCC(C)CC1 |  | active: 10.3 µM
COC(=O)C1=C(c2ccc(C(C)=O)cc2)C[C@@H]2CC[C@H]1N2C(=O)NCCOc1ccccc1Cl |  | inconclusive: 18.4 µM [inhibitor, single point]
O=c1c2ccccc2nc(/C=C/c2ccc(O)cc2)n1-c1cccc(O)c1 |  | inconclusive: 14.6 µM [inhibitor, partial curve, poor fit]
COc1ccc(-n2c(SCCN(C)C)nc3ccccc3c2=O)cc1 |  | inconclusive: 7.31 µM [inhibitor, partial curve]
COC(=O)C1=C(c2cc3ccccc3s2)C[C@@H]2CC[C@H]1N2C(=O)NCc1ccco1 |  | inconclusive: 23.1 µM [inhibitor, single point]
CCN(CC)c1ccc(N=Cc2c(O)n(-c3ccccc3C)c(=O)[nH]c2=O)cc1 |  | inconclusive: 29.1 µM [inhibitor, single point]
ON1C2CCCCC2N(O)C1c1ccccc1 (stereo not given) |  | inconclusive: 11.2 µM [inhibitor, single point]
CCOC(=O)C1(c2ccccc2)CCN(CCC(=O)Nc2ccc(OC)cc2)CC1 |  | inconclusive: 29.1 µM [inhibitor, single point]
Cc1cscn1 |  | inconclusive: 6.51 µM [inhibitor, single point]
O=C(O)CCn1cc(C=C2C(=O)NC(=S)NC2=O)c(-c2cccc(Br)c2)n1 | inactive: -1.85% | 
N=c1sc2c(n1Cc1ccccc1)CCCC2 |  | inconclusive: 23.1 µM [inhibitor, partial curve]
Cn1cccc1C1CCCN1CC(=O)Nc1ccc(C#N)c(Cl)c1 (stereo not given) |  | inconclusive: 29.1 µM [inhibitor, single point]
CNC(Cc1c[nH]c2ccccc12)C(=O)O (stereo not given) |  | inconclusive: 29.1 µM [inhibitor, single point]
CCn1cc(C=C2C(=O)N(C)C(=O)N(C)C2=O)c2ccccc21 | inactive: -2.58% | 
CCOC(=O)c1cccc(-[n+]2c(-c3ccccc3)cc(-c3ccccc3)cc2-c2ccccc2)c1 |  | active: 1.64 µM
COC(=O)C1=C(c2ccc(Cl)c(C(F)(F)F)c2)C[C@@H]2CC[C@H]1N2C(=O)NC1CCCCC1 |  | active: 20.6 µM
Cc1cc(=O)oc2c(C)c(OCC(=O)N3CCN(Cc4ccc5c(c4)OCO5)CC3)ccc12 | inactive: -15.8% | 
O=C(Cc1ccc(N(CCCl)CCCl)cc1)NC(Cc1ccc(Cl)cc1)C(=O)O (stereo not given) |  | inconclusive: 29.1 µM [inhibitor, single point]
COC(=O)c1ccc(CN2CCN(Cc3ccccc3)CC2)cc1 | inactive: -12.9% | 
CN1CCCC(C(=O)c2ccc(-c3ccccc3)cc2)C1 (stereo not given) |  | active: 18.4 µM
Cc1ccc(CN2CCCC(C(=O)c3ccc4c(c3)OCO4)C2)cc1C (stereo not given) |  | inconclusive: 29.1 µM [inhibitor, single point]
CCS(=O)(=O)C(C)(C)S(=O)(=O)CC | inactive: 0.811% | 

SMILES | activity change, negative = growth inhibition | Potency
Cc1ccc(C)c(-c2nnc(NC(=O)C3=COCCO3)o2)c1 |  | inconclusive: 29.1 µM [inhibitor, single point]
ClCCOCCCl |  | inconclusive: 2.91 µM [inhibitor, single point]
CN1CCN(c2nc3ccccc3o2)CC1 | inactive: -1.23% | 
O=c1c2ccccc2nc(/C=C/c2ccc(O)cc2)n1-c1ccc(O)cc1 |  | inconclusive: 29.1 µM [inhibitor, single point]
Cc1ccccc1CN1CCc2nc(N3CCN(c4ccccn4)CC3)ncc2C1 |  | inconclusive: 20.6 µM [inhibitor, partial curve]
c1ccc2c(c1)-c1cccc3cccc-2c13 | inactive: -19.1% | 
NC(Cc1ccc(F)cc1)c1csc(Nc2cnccn2)n1 (stereo not given) |  | inconclusive: 29.1 µM [inhibitor, single point]
O=C(OC1CCN(CCCl)CC1)C(c1ccccc1)c1ccccc1 |  | inconclusive: 23.1 µM [inhibitor, single point]
Cc1c(I)c(=O)n(-c2ccccc2)n1C |  | inconclusive: 33.5 µM [inhibitor, single point]
Cc1cccc(NC(=O)Cn2cc(C(=O)c3ccccc3)c3ccccc32)c1 |  | inconclusive: 29.1 µM [inhibitor, single point]
COc1ccc(CCNCc2ccc(Br)cc2)cc1OC |  | inconclusive: 29.1 µM [inhibitor, single point]
O=c1c2ccccc2nc(/C=C\c2ccc(F)cc2)n1-c1ccccc1F |  | inconclusive: 25.9 µM [inhibitor, single point]
c1ccc(CCCN2CCN(CCOC(c3ccccc3)c3ccccc3)CC2)cc1 |  | active: 6.68 µM and active: 3.26 µM and active: 13 µM
Oc1c(C(Nc2cccnc2)c2ccccc2F)ccc2cccnc12 (stereo not given) |  | inconclusive: 35.5 µM [inhibitor, single point]
CN1C(=O)N(C)C(=O)C2(Cc3c(ccc4ccccc34)N(C)C2)C1=O |  | inconclusive: 18.4 µM [inhibitor, single point]
COc1ccc(OCC(=O)N2CCN(Cc3cc(=O)n4nc(-c5ccccc5C)sc4n3)CC2)cc1 |  | active: 10.3 µM
COC(=O)C1=C(c2ccc(F)cc2OCc2ccccc2)C[C@@H]2CC[C@H]1N2C(=O)NCC1CC1 |  | active: 8.2 µM
COc1cccc(C(=O)C2CCCN(Cc3cccc(C)n3)C2)c1 (stereo not given) |  | active: 16.4 µM
C=CCn1c(O)c(C(C)=Nc2ccc(N(CC)CC)cc2)c(=O)[nH]c1=O |  | active: 9.2 µM
CCCC1C(C#N)=C(N)Oc2c1c(=O)oc1ccccc21 (stereo not given) | inactive: 1.37% | 
Cc1nc2ccc(NC(=O)C3COc4ccccc4O3)cc2s1 (stereo not given) |  | inconclusive: 7.31 µM [inhibitor, partial curve]
O=C(CF)NC(NC(=S)Nc1cccc([N+](=O)[O-])c1)C(Cl)(Cl)Cl (stereo not given) |  | inconclusive: 29.1 µM [inhibitor, single point]
CSCCC(NS(=O)(=O)c1ccc2c(c1)oc(=O)n2C)C(=O)NC1CCCc2ccccc21 (stereo not given) |  | inconclusive: 16.4 µM [inhibitor, single point]
CC(=Nc1ccc2c(c1)CCC2)c1c(O)n(C2CCCCC2)c(=O)[nH]c1=O | inconclusive: -30.7% [inhibitor] | 

SMILES | activity change, negative = growth inhibition | Potency
O=C1NC(=O)N(Cc2ccccc2)C(=O)/C1=C\c1ccco1 |  | active: 13 µM
CCc1ccc(NC(=O)c2ccc(F)c(S(=O)(=O)N3CCC4(CC3)OCCO4)c2)cc1 |  | active: 20.6 µM
O=C(CCc1nc(C2=CCN(Cc3cccc(Cl)c3)CC2)no1)Nc1ccccc1F |  | active: 11.6 µM
Cc1ccc(N2C(=O)NC(=O)C(CCc3ccncc3)(Cc3cccc(Cl)c3Cl)C2=O)cc1 (stereo not given) |  | inconclusive: 9.2 µM [inhibitor, partial curve]
c1ccc(N2CC3(CCNCC3)C2)nc1 |  | inconclusive: 13 µM [inhibitor, partial curve]
CCOC(=O)c1ccc2c(c1)N(CC)C(=O)c1ccccc1S2 |  | inconclusive: 7.31 µM [inhibitor, partial curve, poor fit]
CC(C)(C)n1nnnc1C(c1cc2ccccc2o1)N1CCC2(CC1)C(=O)NCN2c1ccccc1 (stereo not given) |  | inconclusive: 23.1 µM [inhibitor, single point]
Cc1cccnc1-n1c(-c2ccco2)nc2ccccc2c1=O |  | inconclusive: 13 µM [inhibitor, partial curve, poor fit]
COc1ccc(C(C)=O)cc1CC1(C)C(=O)Nc2ccc(-c3ccccc3OC)cc21 (stereo not given) |  | inconclusive: 23.1 µM [inhibitor, single point]
CSc1cc(-c2ccccc2)n(Cc2c(Cl)cccc2Cl)c(=O)c1C#N |  | active: 3.26 µM
Cc1ccccc1C1=NCC(=S)Nc2ccc(Cl)cc21 |  | inconclusive: 25.9 µM [inhibitor, single point]
Cc1ccc(S(=O)(=O)N(C)C)cc1NC(=O)C(C)[N+]12CCN(CC1)CC2 (stereo not given) | inactive: 2.28% | 
C[C@]12CCC(=O)C=C1CC[C@@H]1[C@@H]2CC[C@@]2(C)[C@H]1CC[C@]2(C)O |  | inconclusive: 21.1 µM [inhibitor, single point] [middle of 4 runs]
Cc1ccc2oc(-c3ccc(Cl)cc3)c(O)c(=O)c2c1 |  | active: 16.4 µM
COc1ccc(-c2c(C)nn3c(-c4ccccc4)cc(C)nc23)cc1OC |  | inconclusive: 20.6 µM [inhibitor, single point]
CCC(CO)(C(=O)OC1C[N+]2(C)CCC1CC2)c1ccccc1 (stereo not given) | inactive: -4.4% | 
C[C@H]1CC[C@@H]2N(C1)C[C@H]1[C@@H]3C[C@H]4[C@@H](CC(=O)[C@H]5C[C@@H](O)CC[C@@]54C)[C@@H]3CC[C@H]1[C@]2(C)O | inconclusive: -31.6% [inhibitor] | 
COC(=O)C1=C(c2ccc(F)cc2OCc2ccccc2)C[C@@H]2CC[C@H]1N2C(=O)NC1CC1 |  | inconclusive: 29.1 µM [inhibitor, single point]
CCC(OC(C)=O)C(CC(C)NC)(c1ccccc1)c1ccccc1 (stereo not given) |  | active: 24.6 µM
O=C(NCCc1ccc(F)cc1)C(=O)NCC(c1cccs1)S(=O)(=O)c1ccc(Cl)cc1 (stereo not given) |  | active: 11.6 µM
O=C(CN1CCN(CCO)CC1)Nc1ccc(Cl)cc1C(=O)c1ccccc1 | inactive: -11.8% | 
COc1cc(NC(=O)c2ccco2)ccc1NC(=O)c1ccccc1Cl |  | inconclusive: 1.16 µM [inhibitor, partial curve]
